# Source: PubChem BioAssay AID360 (National Center for Advancing Translational Sciences (NCATS), 2006)
# In all, about 48,000 compounds went through this assay and about 550 (1.1%) were called active. Inconclusive results (about 4%) are left out. Cut-off read from the data, not from the text of the source: active = potency below about 15 µM; inconclusive = mostly about 16 µM to 33 µM; inactive = weaker than that. The list shows a part of the results.
# Target: Lysosomal acid glucosylceramidase (Homo sapiens) (UniProt P04062)
# Experiment: Glucocerebrosidase;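 note: the screen sought inhibitors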
# Settings: purified enzyme, resorufin glucoside fluorescence (screen aimed at inhibitors), 20 min; series mostly up to 77 µM
# Method in brief: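 Compounds titrated against 0.2 nM normal enzyme, 30 uM resorufin beta-D-glucopyranoside substrate, citrate/phosphate buffer with taurocholate and tween-20, pH 5.9. Reaction ran 20 min at room temperature; fluorescence (Ex 548/Em 600) gave AC50.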
# Potency is the fitted concentration of half-maximal effect.
# UniProt P04062, sequence (P04062 whole entry, looked up): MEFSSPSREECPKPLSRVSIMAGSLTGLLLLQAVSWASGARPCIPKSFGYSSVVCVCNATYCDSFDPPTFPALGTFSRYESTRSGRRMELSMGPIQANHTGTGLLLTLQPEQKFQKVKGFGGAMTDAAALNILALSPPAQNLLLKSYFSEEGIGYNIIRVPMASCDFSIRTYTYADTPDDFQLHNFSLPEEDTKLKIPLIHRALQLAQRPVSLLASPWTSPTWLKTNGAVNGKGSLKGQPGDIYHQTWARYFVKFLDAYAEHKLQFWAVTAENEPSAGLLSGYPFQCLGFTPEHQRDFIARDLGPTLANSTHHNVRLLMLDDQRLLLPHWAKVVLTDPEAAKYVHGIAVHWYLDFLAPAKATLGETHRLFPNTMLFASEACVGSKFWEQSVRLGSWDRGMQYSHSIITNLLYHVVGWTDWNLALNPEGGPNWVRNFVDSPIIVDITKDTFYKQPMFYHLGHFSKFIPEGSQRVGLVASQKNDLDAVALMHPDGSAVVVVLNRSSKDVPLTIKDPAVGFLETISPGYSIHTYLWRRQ
row,Compound,Potency
1,CCN=C1SC(CC(=O)Nc2ccccc2OCC)C(=O)N1CC (stereo not drawn),inactive: > 76.9 µM
2,CCn1cc(C2=NCC(C)O2)c2ccccc21 (stereo not drawn),inactive
3,CC(Oc1ccccc1)C(=O)NCc1cccnc1 (stereo not drawn),inactive: > 76.9 µM
4,CCC(C)(C)n1nnnc1C(c1cccc(C#N)c1)N1CCN(c2cccc(C)c2C)CC1 (stereo not drawn),inactive: > 76.9 µM
5,CN(C)C=Nc1ncc2c3ccccc3n(Cc3ccccc3)c2c1C#N,inactive: > 76.9 µM
6,CCc1nn(CC(=O)N2CCN(Cc3ccc4c(c3)OCO4)CC2)c(=O)c2cc3occc3n12,inactive: > 76.9 µM
7,CC1CCCCN1CC(=O)NCc1ccc2c(c1)OCO2 (stereo not drawn),inactive: > 76.9 µM
8,CCN1C(=O)CC(C(=O)O)SC1=Nc1ccc(OC)cc1 (stereo not drawn),inactive: > 76.9 µM
9,O=C(O)C1CC(=O)N(c2ccc(Br)cc2)C1 (stereo not drawn),inactive: > 76.9 µM
10,Cc1ccccc1OCC(=O)Nc1ccc(N2CCN(C(=O)C(C)C)CC2)c(Cl)c1,active: 2.17 µM
11,CCCCc1c(O)nc(SCC(=O)N2CCOCC2)[nH]c1=O,inactive: > 76.9 µM
12,CSCCC(NC(=O)C1CC1)c1nc2ccccc2[nH]1 (stereo not drawn),inactive: > 76.9 µM
13,NC(=O)C1CCN(C(=O)CN2C(=O)c3ccccc3S2(=O)=O)CC1,inactive: > 76.9 µM
14,Cc1cc2ccccc2c(=O)n1CC(=O)N(C)c1ccc(F)cc1,inactive: > 76.9 µM
15,Cc1oc(-c2ccc(Cl)cc2)nc1CS(=O)CC(=O)NCCCN(C)C1CCCCC1 (stereo not drawn),inactive: > 76.9 µM
16,CCN(CC)c1ccc(C(=O)OCC(=O)c2ccco2)cc1,inactive: > 76.9 µM
17,Cc1ccc(S(=O)(=O)C2(C(=O)NC3CCCC3)CC2)cc1,inactive: > 76.9 µM
18,O=C(NCCSc1ccccc1)c1ccccc1,inactive: > 76.9 µM
19,NC(=O)COC(=O)CNC(=O)c1ccc(Cl)cc1,inactive: > 76.9 µM
20,Fc1ccccc1CSc1nnc(Cn2cnc3ccccc32)n1-c1ccccc1,inactive: > 76.9 µM
21,COc1ccc(Br)cc1CNc1ccc(O)cc1,inactive
22,CC(NC(=O)COc1cccc(Br)c1)C(=O)O (stereo not drawn),inactive: > 76.9 µM
23,COc1ccccc1N(C(=O)c1ccco1)C(C(=O)NC1CCCC1)c1cccnc1 (stereo not drawn),inactive: > 76.9 µM
24,c1ccc(-c2nnc(CSc3nncs3)o2)cc1,inactive: > 76.9 µM

row,Compound,Potency
1,CCOC(=O)c1sc2nc(C)n(CC(=O)NCC3CCCO3)c(=O)c2c1C (stereo not drawn),inactive: > 76.9 µM
2,FC(F)(F)c1nc2ncc(Cl)cc2[nH]1,inactive: > 76.9 µM
3,O=S(=O)(c1ccccc1C(F)(F)F)N1CCOCC1,inactive: > 76.9 µM
4,CCS(=O)(=O)N1CCc2cc(OC)c(OC)cc2C1,inactive: > 76.9 µM
5,CCOC(=O)N1CCN(C(=O)c2cccc(-n3c(=S)[nH]c4cc(Cl)ccc4c3=O)c2)CC1,inactive: > 76.9 µM
6,COc1ccc2nc(N3CCC(C)CC3)c(C#N)cc2c1,inactive: > 76.9 µM
7,CC(C)(C)n1nc2c(c1NC(=O)c1ccc(S(=O)(=O)N3CCCCC3)cc1)CS(=O)C2 (stereo not drawn),inactive: > 76.9 µM
8,Cc1cc(C(=O)COC(=O)C2=COCCO2)c(C)n1-c1ccc2c(c1)OCO2,inactive: > 76.9 µM
9,CCOC(=O)C1CCN(C(=O)C2CCN(S(=O)(=O)c3cc(Cl)ccc3Cl)CC2)CC1,inactive: > 76.9 µM
10,O=C(Nc1ccc(C(=O)N2CCOCC2)cc1)Nc1cccc(Cl)c1,inactive: > 76.9 µM
11,CCOC(=O)CSc1nnc(CNC(=O)c2ccc(OC)cc2)n1C1CCCCC1,inactive: > 76.9 µM
12,Cc1cc(=O)oc2ccc(OCC(=O)N3CCC(C)CC3)cc12,inactive: > 76.9 µM
13,COCc1cc(C)n(CC(=O)NC(C)c2ccccc2)c(=O)c1C#N (stereo not drawn),inactive: > 76.9 µM
14,Cc1ccc(C)c(Cn2c(C(C)O)nc3ccccc32)c1 (stereo not drawn),inactive: > 76.9 µM
15,O=C(CCSc1nnc(-c2ccncc2)o1)Nc1ccc(F)cc1,inactive: > 76.9 µM
16,O=C(OCc1ccccc1F)c1ccc2c(c1)OCCO2,inactive: > 76.9 µM
17,CCN(CC)C(=O)CSc1nc2ncc(Br)cc2[nH]1,inactive: > 76.9 µM
18,CCn1cnc2c1c(=O)n(CC(=O)Nc1cc(C)on1)c(=O)n2Cc1ccccc1,inactive: > 76.9 µM
19,C1CSC2(N1)C1CC3CC(C1)CC2C3 (stereo not drawn),inactive: > 76.9 µM
20,COc1ccc(S(=O)(=O)N2CCCC(C(=O)NCc3ccccn3)C2)cc1Cl (stereo not drawn),inactive: > 76.9 µM
21,COc1ccc(NC(=O)CCNC(=O)Cn2cnc3ccccc3c2=O)c(OC)c1,inactive: > 76.9 µM
22,c1ccc(CNC2=NCCCCC2)cc1,inactive: > 76.9 µM
23,CC(=O)C1=C(O)C(=O)N(Cc2ccco2)C1c1ccc(F)cc1 (stereo not drawn),inactive: > 76.9 µM
24,CCn1c(SC)nc2c(c1=O)SC(C)C2 (stereo not drawn),inactive: > 76.9 µM

row,Compound,Potency
1,COc1ccccc1N1CCN(C(=O)c2oc3ccccc3c2C)CC1,inactive: > 76.9 µM
2,O=C(c1ccco1)N1CCn2c1nc1ccccc12,inactive: > 76.9 µM
3,O=C(O)CCc1ccc(-c2ccc(F)cc2)n1NC(=O)c1ccco1,inactive: > 76.9 µM
4,COC(=O)C1=CNC=C(C(=O)OC)C1c1ccccc1Cl,inactive: > 76.9 µM
5,Cc1c(Cl)cccc1NC(=O)CC1SCCNC1=O (stereo not drawn),inactive: > 76.9 µM
6,O=C(Nc1ccccc1)NC1(C(=O)NCCCN2CCOCC2)CCCCC1,inactive: > 76.9 µM
7,CCOC(=O)c1ccc(CSc2nnc(-c3ccncc3)n2N)cc1,inactive: > 76.9 µM
8,Clc1ccc(OCCn2cnc3ccccc32)cc1,inactive: > 76.9 µM
9,O=C(Nc1ccccc1-c1ccccc1)NC1CCN(C(=O)N2CCOCC2)CC1,inactive: > 76.9 µM
10,CC(=O)c1ccc(N2CCN(C(=O)C3(S(=O)(=O)c4ccc(Cl)cc4)CC3)CC2)cc1,inactive: > 76.9 µM
11,CC(=O)N1CCN(Cc2nc3cc(NS(C)(=O)=O)ccc3n2C)CC1,inactive: > 76.9 µM
12,Cc1nc(SCC(=O)Nc2ccccc2)c2oc3ccccc3c2n1,inactive: > 76.9 µM
13,Cn1c(SCC(=O)Nc2ccc(N3CCOCC3)cc2)nnc1-c1ccccc1,inactive: > 76.9 µM
14,COc1cccc(C(=O)Cn2c(N3CCOCC3)nc3c2c(=O)n(C)c(=O)n3C)c1,inactive: > 76.9 µM
15,O=C(O)CCN1C(=O)c2ccccc2C1=O,inactive: > 76.9 µM
16,Cc1cc(N(C(=O)c2ccco2)C(C(=O)NC2CCCCC2)c2ccccc2)ccc1-n1cnnn1 (stereo not drawn),inactive: > 76.9 µM
17,COc1cccc(-n2nnnc2SCC(=O)Nc2cccc(C)n2)c1,inactive: > 76.9 µM
18,COc1ccccc1N1CCN(C(c2ccc(Cl)cc2)c2nnnn2C(C)(C)C)CC1 (stereo not drawn),inactive: > 76.9 µM
19,CN(CC(=O)Nc1ccccc1Cl)C(=O)COC(=O)CNC(=O)c1ccc(Br)o1,inactive: > 76.9 µM
20,Cc1cc(C)n(-c2nc3ccccc3c(=O)n2OCc2ccc(F)cc2)n1,inactive: > 76.9 µM
21,CCN(CCCNC(=O)c1c(C)cc(=O)oc1C)c1ccccc1,inactive: > 76.9 µM
22,CCOc1cc(C(=O)OCC(=O)NCc2ccco2)cc(OCC)c1OCC,inactive
23,C=C(C)COc1ccc2c(C)c(C)c(=O)oc2c1OCC(=C)C,inactive: > 76.9 µM
24,COc1cc(C2NC(=O)NC(c3ccccc3)=C2C(C)=O)ccc1OCC#N (stereo not drawn),inactive: > 76.9 µM

row,Compound,Potency
1,O=C(Cn1nnc(-c2ccccc2-n2cnnn2)n1)N1CCCCC1,inactive: > 76.9 µM
2,O=S(=O)(NCCc1ccccc1)c1ccc(S(=O)(=O)N2CCCCC2)cc1,inactive: > 76.9 µM
3,O=C(O)c1ccc(COCC(F)(F)F)cc1,inactive: > 76.9 µM
4,CCOC(=O)C(O)(NC(=O)c1cccnc1)C(F)(F)F (stereo not drawn),inactive: > 76.9 µM
5,N#Cc1ccc(COC(=O)c2ccc3c(=O)[nH]c(CN4CCOCC4)nc3c2)cc1,inactive: > 76.9 µM
6,CCOC(=O)C1CCCN(CCC(=O)Nc2cccc(F)c2)C1 (stereo not drawn),inactive: > 76.9 µM
7,Cc1cccc(OCCC(=O)Nc2ccc(S(=O)(=O)N3CCCC3)cc2)c1,inactive: > 76.9 µM
8,COc1ccc(CCNC(=O)Cn2nnc(-c3cccc(OC)c3OC)n2)cc1OC,inactive: > 76.9 µM
9,COc1ccc(OCCSc2ncccn2)cc1,inactive: > 76.9 µM
10,COc1ccccc1C(=O)NC(C)c1nc2ccccc2[nH]1 (stereo not drawn),inactive: > 76.9 µM
11,O=C(Nc1c(Cl)cccc1Cl)C1CCC1,inactive: > 76.9 µM
12,CN(C)c1nc(Nc2ccccc2)nc(Oc2ccc(=O)[nH]n2)n1,inactive: > 76.9 µM
13,Cc1nc2ccccn2c1P(=Nc1ccccc1)(N(C)C)N(C)C,inactive: > 76.9 µM
14,O=C(O)c1ccc2c(c1)C(=O)N(c1cc(C(=O)O)ccc1Br)C2=O,inactive: > 76.9 µM
15,O=C(CSc1nnc(-c2ccncc2)o1)Nc1ccccc1Cl,inactive: > 76.9 µM
16,COC(=O)c1ccc2c(c1)NC(=O)C(N1CCCC1)S2 (stereo not drawn),inactive: > 76.9 µM
17,CCC1CCCCN1C(=O)C1CC(c2cc(Cl)c(OC)cc2OC)=NO1 (stereo not drawn),inactive: > 76.9 µM
18,COC(=O)C1=C(C)NC(=O)NC1c1cc(Cl)ccc1OC (stereo not drawn),inactive: > 76.9 µM
19,CNC(=O)CCC(=O)Nc1ccc(C(=O)OC)cc1,inactive: > 76.9 µM
20,O=C(COC(=O)c1cccs1)c1ccccc1,inactive: > 76.9 µM
21,COCC(C)NC(=O)C1CC(c2cccc(Br)c2)=NO1 (stereo not drawn),inactive: > 76.9 µM
